These are yes or no findings as the source states them, for the method shown. For some of these results: In cells and extracts the contact can be indirect. Some entries that bind do so weakly or less than the wild type. For some of these results: Tags and fused reporters may be left off the sequences shown. Values belong to the substance of their own block, whether it stands above or below them.
Tests used:
[1] = target: GST-tagged ITSN1 SH3d (aa1076-1138) R1119E (human) (UniProt Q15811); experiment: pull-down; GST-tagged SH3 domains on glutathione beads incubated with recombinant protein for 10 min at room temperature, 6 washes; Coomassie stained gel; both purified
[2] = target: GST-tagged ITSN1 SH3d (aa1076-1138) I1078K (human) (UniProt Q15811); experiment: as above
[3] = target: GST-tagged ITSN1 SH3d (aa1076-1138) I1078S (human) (UniProt Q15811); experiment: as above
[4] = target: GST-tagged ITSN1 SH3d (aa1076-1138) R1119A (human) (UniProt Q15811); experiment: as above
[5] = target: GST-tagged FCHSD2 SH3-2 (aa568-629) V622K+L623K (human) (UniProt O94868); experiment: as above
[6] = target: GST-tagged FCHSD2 SH3-2 (aa568-629) Y576S+F607S (human) (UniProt O94868); experiment: as above
[7] = target: GST-tagged FCHSD2 SH3-2 (aa568-629), wild type (human) (UniProt O94868); experiment: pull-down; GST-tagged SH3 domains on glutathione beads incubated with rat brain lysate for 1 h at 4°C, 6 washes; immunoblots for N-WASP and ITSN1; only the target purified
[8] = target: T1, GST-tagged FCHSD1 SH3-2 (aa544-607) (mouse) (UniProt Q6PFY1); experiment: as above
T1 sequence: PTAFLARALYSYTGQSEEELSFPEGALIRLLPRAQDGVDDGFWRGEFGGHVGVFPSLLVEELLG

Protein sequences, listed by entry. Tags and fused reporters are not part of them. Lines headed by an entry give the natural chain unless they say otherwise; changes in a name come on top. Chains listed by the source or under a name are the forms on record and can include a tag or linker. Residues count along the entry.
ITSN1 SH3d (aa1076-1138), recombinant (Q15811, residues 1076-1138): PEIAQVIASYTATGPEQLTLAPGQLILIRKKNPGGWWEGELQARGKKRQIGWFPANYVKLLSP
GST-tagged ITSN1 SH3d (aa1076-1138) R1119E (Q15811-1, form named): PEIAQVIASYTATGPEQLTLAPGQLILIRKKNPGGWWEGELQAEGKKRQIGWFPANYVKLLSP
GST-tagged ITSN1 SH3d (aa1076-1138) I1078K (Q15811-1, form named): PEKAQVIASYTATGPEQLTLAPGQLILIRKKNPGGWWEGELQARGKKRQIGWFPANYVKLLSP
GST-tagged ITSN1 SH3d (aa1076-1138) I1078S (Q15811-1, form named): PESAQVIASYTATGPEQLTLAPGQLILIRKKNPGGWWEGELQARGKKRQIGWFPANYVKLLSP
GST-tagged ITSN1 SH3d (aa1076-1138) R1119A (Q15811-1, form named): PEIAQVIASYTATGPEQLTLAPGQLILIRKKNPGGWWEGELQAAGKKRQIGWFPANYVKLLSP
UniProt Q9WVE9: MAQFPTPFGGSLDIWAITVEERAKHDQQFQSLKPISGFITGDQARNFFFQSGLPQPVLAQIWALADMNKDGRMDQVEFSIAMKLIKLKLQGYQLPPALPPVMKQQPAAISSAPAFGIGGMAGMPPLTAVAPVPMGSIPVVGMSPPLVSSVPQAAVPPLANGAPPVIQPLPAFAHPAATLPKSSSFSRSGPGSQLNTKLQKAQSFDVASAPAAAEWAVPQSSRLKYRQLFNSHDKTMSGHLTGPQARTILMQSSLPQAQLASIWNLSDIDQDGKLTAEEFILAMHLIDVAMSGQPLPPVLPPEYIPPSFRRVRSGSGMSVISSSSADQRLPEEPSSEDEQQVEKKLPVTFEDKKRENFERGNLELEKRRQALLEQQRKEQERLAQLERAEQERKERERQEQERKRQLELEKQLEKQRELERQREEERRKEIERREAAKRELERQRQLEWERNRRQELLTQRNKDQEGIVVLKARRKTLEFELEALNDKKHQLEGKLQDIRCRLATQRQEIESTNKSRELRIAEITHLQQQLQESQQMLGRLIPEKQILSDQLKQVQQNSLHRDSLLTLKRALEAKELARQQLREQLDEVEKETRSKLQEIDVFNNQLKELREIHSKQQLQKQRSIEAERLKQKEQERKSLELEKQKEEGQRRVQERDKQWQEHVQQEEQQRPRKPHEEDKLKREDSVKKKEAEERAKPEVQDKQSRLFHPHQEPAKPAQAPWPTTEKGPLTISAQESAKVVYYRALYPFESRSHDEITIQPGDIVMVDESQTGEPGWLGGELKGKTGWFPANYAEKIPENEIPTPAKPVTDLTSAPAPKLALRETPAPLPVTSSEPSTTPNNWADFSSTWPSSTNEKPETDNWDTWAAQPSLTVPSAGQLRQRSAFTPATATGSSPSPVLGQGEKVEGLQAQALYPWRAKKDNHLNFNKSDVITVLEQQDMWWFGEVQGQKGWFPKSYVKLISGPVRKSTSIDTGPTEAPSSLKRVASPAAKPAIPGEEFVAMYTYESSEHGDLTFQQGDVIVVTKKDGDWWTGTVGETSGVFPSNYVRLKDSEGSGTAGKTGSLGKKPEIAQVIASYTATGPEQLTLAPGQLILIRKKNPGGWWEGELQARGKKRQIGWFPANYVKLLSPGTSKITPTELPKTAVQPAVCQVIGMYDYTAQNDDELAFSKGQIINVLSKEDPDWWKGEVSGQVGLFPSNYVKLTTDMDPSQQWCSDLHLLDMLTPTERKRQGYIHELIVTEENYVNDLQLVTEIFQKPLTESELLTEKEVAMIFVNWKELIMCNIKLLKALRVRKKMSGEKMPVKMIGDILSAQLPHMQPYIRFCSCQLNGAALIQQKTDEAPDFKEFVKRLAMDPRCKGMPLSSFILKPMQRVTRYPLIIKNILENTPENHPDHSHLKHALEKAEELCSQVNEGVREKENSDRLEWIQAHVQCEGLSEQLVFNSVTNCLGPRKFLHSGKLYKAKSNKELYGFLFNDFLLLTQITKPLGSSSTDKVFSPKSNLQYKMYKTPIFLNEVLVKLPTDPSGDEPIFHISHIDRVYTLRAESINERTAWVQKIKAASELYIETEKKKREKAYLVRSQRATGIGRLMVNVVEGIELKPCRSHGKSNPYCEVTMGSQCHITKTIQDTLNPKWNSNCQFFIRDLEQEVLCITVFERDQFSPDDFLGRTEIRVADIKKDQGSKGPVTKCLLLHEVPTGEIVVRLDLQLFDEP
UniProt O08816: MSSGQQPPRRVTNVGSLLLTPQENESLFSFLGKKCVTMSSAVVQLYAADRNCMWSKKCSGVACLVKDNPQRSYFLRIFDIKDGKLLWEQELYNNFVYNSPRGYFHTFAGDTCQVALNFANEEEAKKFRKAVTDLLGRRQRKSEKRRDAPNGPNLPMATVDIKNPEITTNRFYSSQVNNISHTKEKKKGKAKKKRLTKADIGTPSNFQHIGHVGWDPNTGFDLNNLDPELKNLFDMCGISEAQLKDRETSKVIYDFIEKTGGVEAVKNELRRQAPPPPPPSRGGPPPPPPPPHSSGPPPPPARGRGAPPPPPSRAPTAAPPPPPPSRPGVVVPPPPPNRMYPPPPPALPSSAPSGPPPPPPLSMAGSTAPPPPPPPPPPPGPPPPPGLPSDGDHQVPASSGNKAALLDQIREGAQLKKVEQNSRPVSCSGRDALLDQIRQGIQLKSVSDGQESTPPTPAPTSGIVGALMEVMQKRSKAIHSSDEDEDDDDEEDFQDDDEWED

[9] = target: T2, GST-tagged FCHSD2 SH3-1 (aa469-530) (human) (UniProt O94868); experiment: as above
T2 sequence: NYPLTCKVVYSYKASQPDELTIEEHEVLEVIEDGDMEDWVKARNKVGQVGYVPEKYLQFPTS

[10] = target: T3, GST-tagged FCHSD1 SH3-1 (aa466-527) (mouse) (UniProt Q6PFY1); experiment: as above
T3 sequence: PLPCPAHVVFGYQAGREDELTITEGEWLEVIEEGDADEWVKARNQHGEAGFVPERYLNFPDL

binding [1]: no binding | binding [2]: no binding | binding [3]: no binding | binding [4]: no binding
Substance: FCHSD2 SH3-2 (aa568-629), recombinant (from UniProt O94868-1 568-629) (domain or fragment)

binding [5]: no binding | binding [6]: no binding
Substance: ITSN1 SH3d (aa1076-1138), recombinant (from UniProt Q15811-1 1076-1138) (domain or fragment)

binding [7]: binds | binding [8]: binds
Substance: Intersectin1 (endogenous, brain extract) (from UniProt Q9WVE9 1-1713)

binding [9]: binds | binding [10]: binds
Substance: N-WASP (endogenous, brain extract) (from UniProt O08816 1-501)

From article PMC6057269
